Data as given in US20240376128A1, “N-CYCLOPROPYLPYRIDO [4, 3-D] PYRIMIDIN-4-AMINE DERIVATIVES AND USES THEREOF” (Jacobio Pharmaceuticals Co., Ltd., priority 2021, published 2024).

Experiments:
K-Ras G12V [1] = target: T1, K-Ras G12V (Homo sapiens, UniProt P01116, G12V); assay: SOS1 catalyzed nucleotide exchange assay (GDP form K-Ras), TR-FRET; details: read-out: Biochemical assays, IC50, K-Ras G12V GDP
Description: The parameters were F486: Excitation 340 nm, Emission 486 nm, Lag time 100 pas, Integration time 200 pas; F515: Excitation 340 nm, Emission 515 nm, Lag time 100 pas, Integration time 200 pas. TR-FRET ratios for each individual wells were calculated by equation: TR-FRET ratio=(Signal F515/Signal F486)*10000.

K-Ras G12V [2] = target: T1, K-Ras G12V; assay: GTP-K-Ras (GppNp-K-Ras) and cRAF interaction assay, HTRF; details: read-out: Biochemical assays, IC50, K-Ras G12V GppNp
Excerpt: GppNp is an analog of GTP.

Question: How did the IC50 (K-Ras G12V [1]) turn out when `C#Cc1c(F)ccc2cc(O)cc(-c3ncc4c(N(C)C5(C)CC5)nc(OC[C@@]56CCCN5C[C@H](F)C6)nc4c3F)c12` [Compound 19] was run?
Answer: 9.6 nM

Question: And the IC50 (K-Ras G12V [2])?
Answer: 3.65 µM
